The source of these data is PubChem BioAssay AID1745853 (National Center for Advancing Translational Sciences (NCATS), 2022).

This is one part of the list. Further columns of the screen follow, without active or inactive calls.

Test in all cases: Primary Screen for Target Class Profiling of Small Molecule Inhibitors of Methyltransferases
Experiment [1] has as its target Glycine N-methyltransferase (Homo sapiens) (UniProt Q14749). Particulars: purified enzyme, MTase-Glo SAH luminescence; measured here: GNMT inhibition; at 40 µM; stronger effect = lower value. The text has this:
(§1) PI: Matthew D. Hall Ph.D. and Quinlin M. Hanson Ph.D.
(§2) National Center for Advancing Translational Sciences (NCATS)
(§3) National Institute of Health (NIH), Rockville, MD
(§4) Target class profiling (TCP) is a chemical biology approach amenable to investigating understudied biological targets. TCP is achieved by developing a generalizable assay platform and applying it to screen a curated set of compound libraries against representative members of a target class. Small molecule methyltransferases (SMMTase) are a subclass of methyltransferase that act on metabolites to modulate signaling pathways, metabolize xenobiotics, or balance the available methyl pool. We screened four curated libraries totaling 27,574 unique compounds against the SMMTases nicotinamide N-methyltransferase (NNMT), phenylethanolamine N-methyltransferase (PNMT), histamine N-methyltransferase (HNMT), glycine N-methyltransferase (GNMT), catechol O-methyltransferase (COMT), and guanidinoacetate N-methyltransferase (GAMT). The data generated by this TCP can be leveraged for informed tool molecule development. For example, in the associated publication we identified a chemotype of HNMT-selective inhibitors. Additionally, we identified a putative SMMTase-selective inhibitor with potential as a tool molecule for studying broader methyltransferase biology.
(§5) High-through put screening assays were developed at the National Center for Advancing Translational Science (NCATS) for the enzymes NNMT, PNMT, HNMT, GNMT, COMT, and GAMT. Enzymatic activity was measured as a function of SAM cofactor conversion using the MTase Glo kit (Promega) for all enzymes. All assays were performed in 1536-well format with substrates and SAM concentrations at KM values. Enzyme concentration and assay timing were optimized for 10-20% SAM conversion. Initial screening of 27,574 compounds was done as single-point assays using the highest compound concentration (40 uM). […] These compounds were replated in 11-point dose response and assayed against NNMT, PNMT, HNMT, GNMT, COMT, GAMT, and a counter-assay. The IC50 and efficacy (maximal response) values were determined for each dose-response curve. These values are also accounted for in the area under the curve (AUC) values.
(§6) PROTOCOL TABLE (as described by Inglese J, Shamu CE and Guy RK. 2007)
(§7) SEQUENCE No. (e.g., 1, 2, 3, etc.); […] (e.g., Cells, Incubation, Reagent, etc.); VALUE; DESCRIPTION.
(§8) 1; Reagent; 2 uL; SMMTase Enzyme (2x) in reaction buffer, columns 1- 48.
(§9) 2; Reagent; 1 uL; SAM (4x) in reaction buffer, columns 1-48.
(§10) 3; Controls; 23 nL; DMSO in column 4; sinefungin in DMSO (0 uM - 40 uM) in 7-point 1:2 dilution series (n = 2) in column 2.
(§11) 4; Compounds; 23 nL; Columns 5-48.
(§12) 5; Reagent; 1 uL; Substrate (4x) in reaction buffer, columns 2-48.
(§13) 6; Time; 20-30 min; Incubation.
(§14) 7; Reagent; 1 uL; MTase-Glo reagent (5X), columns 1-48.
(§15) 8; Time; 30 min; Incubation.
(§16) 9; Reagent; 5 uL; MTase-Glo Detection reagent, columns 1-48.
(§17) 10; Time; 30 min; Incubation, luminescence evolution.
(§18) 11; Detection; Luminescence; ViewLux uHTS Microplate Imager (PerkinElmer).
(§19) NOTES (numbers refer to Sequence numbers above)
(§20) 1, 2, 5. White Medium Binding Greiner 1536-well plates (Cat #789175-F, Greiner Bio-One, Monroe, NC); Reaction buffer: 50 mM Tris, pH 8.0, 3 mM MgCl2, 1 mM EDTA, 50 mM NaCl, 1 mM DTT, and 0.1 mg/mL BSA. Evaporation was prevented by covering assay plates with metal lids containing holes to allow gas diffusion.
(§21) 1. Six SMMTase were profiled: HNMT, GNMT, PNMT, COMT, NNMT, GAMT
(§22) 5. The corresponding substrate was used for each enzyme: HNMT - 5.3 uM Histamine; GNMT - >500 uM Glycine; PNMT - 16.2 uM Norephinephrine; COMT - 13.7 uM Norephinephrine; NNMT - 3.8 uM Nicotinamide; GAMT - 2.5 uM Guanidinoacetate.6, 8, 10. Room temperature
(§23) 6. Final reaction conditions: 10 nM COMT, 5 uM SAM, 15 uM norepinephrine, 50 mM Tris, pH 8.0, 3 mM MgCl2, 1 mM EDTA, 50 mM NaCl, 1 mM DTT, and 0.1 mg/mL BSA; refer to tables 2 and S1 for specific timing.
8. […]

Experiment [2] has as its target Guanidinoacetate N-methyltransferase (Homo sapiens) (UniProt Q14353). The conditions noted are these: purified enzyme, MTase-Glo SAH luminescence; measured here: GAMT inhibition; at 40 µM; stronger effect = lower value.
Source text: as §1, §2, §3, §4, §5, §6, §7, §8, §9, §10, §11, §12, §13, §14, §15, §16, §17, §18, §19, §20, §21, §22, §23
8. […]

Experiment [3] concerns the target Histamine N-methyltransferase (Homo sapiens) (UniProt P50135). Particulars: purified enzyme, MTase-Glo SAH luminescence; measured here: HNMT inhibition; at 40 µM; stronger effect = lower value.
Source text: as §1, §2, §3, §4, §5, §6, §7, §8, §9, §10, §11, §12, §13, §14, §15, §16, §17, §18, §19, §20, §21, §22, §23
8. […]

Experiment [4] concerns the target Nicotinamide N-methyltransferase (Homo sapiens) (UniProt P40261). The conditions noted are these: purified enzyme, MTase-Glo SAH luminescence; measured here: NNMT inhibition; at 40 µM; stronger effect = lower value.
Source text: as §1, §2, §3, §4, §5, §6, §7, §8, §9, §10, §11, §12, §13, §14, §15, §16, §17, §18, §19, §20, §21, §22, §23
8. […]

Experiment [5] concerns the target Phenylethanolamine N-methyltransferase (Homo sapiens) (UniProt P11086). The conditions noted are these: purified enzyme, MTase-Glo SAH luminescence; measured here: PNMT inhibition; at 40 µM; stronger effect = lower value.
Source text: as §1, §2, §3, §4, §5, §6, §7, §8, §9, §10, §11, §12, §13, §14, §15, §16, §17, §18, §19, §20, §21, §22, §23
8. […]
% is set by controls: 0 for no effect and ±100 for the full control effect.

With `Cc1noc(C)c1CC(=O)N1CC[C@@H](NC(=O)c2cnccn2)[C@H](O)C1`, the activity change, negative = inhibition in experiment [1] is -4.88%; in experiment [2], -11.3%; in experiment [3], -4.63%; in experiment [4], -18.6%; in experiment [5] it was -14.7%.
The matching figures for `COc1cc(/C=C/C(=O)OC[C@H]2O[C@@](CO)(O[C@H]3O[C@H](CO)[C@@H](O)[C@H](O)[C@H]3O)[C@@H](OC(=O)/C=C/c3ccc(O)c(OC)c3)[C@@H]2O)ccc1O`: 0%, -2.94%, 8.64%, -15.3% and -7.58%.
The like results for `Cc1cc(Cl)ccc1NC1CN(C(=O)OC(C)(C)C)C1` were, in that order, 0.554%, -6.05%, 3.42%, -4.13% and -0.04%.
The matching figures for `CCCSCCCN1C(=O)c2cc3sccc3n2CC1(C)C(=O)NC1CCCCCC1` (stereo not given): -6.32%, 1.65%, -0.676%, 0.818% and -2.29%.
For `COc1cccc(CN2CCOCCNC(=O)CC2)c1`, the activity change, negative = inhibition in experiment [1] is 0.916%; in experiment [2] it was -5.6%; in experiment [3], 0.125%; in experiment [4] it was -15.4%; in experiment [5], -2.57%.
The like results for `CN1C(=O)c2cc(C(=O)NCc3ccccc3F)nn2CC1(C)C(=O)NCc1ccc(F)cc1` (stereo not given) were, in that order, 0.283%, 2.23%, 3.03%, -3.57% and -2.39%.
The matching figures for `CN(C)C(=O)C(O)C(Cc1ccccc1)NC(=O)c1cc2cc(Cl)ccc2[nH]1` (stereo not given): 4.55%, 9.1%, 10.5%, -11.9% and 1.23%.
The like results for `COc1ccc(CNC(=O)Cn2nc3n(CCC(C)C)c(=O)c4ccccc4n3c2=O)cc1` were, in that order, 3.46%, 4.77%, 9.03%, 2.1% and 3.06%.
Turning to `Cc1cc2[nH]c(=O)[nH]c2cc1S(=O)(=O)N1CCCC1`, the activity change, negative = inhibition in experiment [1] is -2.52%; in experiment [2], 2.54%; in experiment [3], -6.27%; in experiment [4], -4.76%; in experiment [5], -8.02%.
The like results for `CCOc1ccc(C(=O)Nc2ccc3c(c2)C(=O)N(C)C2=NCCN23)cc1OCC` were, in that order, -1.5%, -0.002%, 0.343%, 2.6% and -0.717%.
The matching figures for `COc1ccc([C@H]2Cc3cccc(O)c3C(=O)O2)cc1OC`: -15.7%, -5.85%, -6.16%, -21% and -3.56%.
With `COC(=O)C(CC1CCCC1)c1ccc(S(C)(=O)=O)cc1` (stereo not given), the activity change, negative = inhibition was -0.617% in experiment [1]; 5.17% in experiment [2]; 9.78% in experiment [3]; -18.2% in experiment [4]; -2.05% in experiment [5].
The like results for `CCN1CCN(C(=O)c2ccc(-c3nnc4ccc(NC(=O)C5CC5)cn34)cc2)CC1` were, in that order, -1.72%, -1.26%, -0.759%, -1.29% and -0.024%.
Regarding `CC1CCC2(C)CCC3(C)C(=CCC4C5(C)CCC(O)C(C)(C(=O)O)C5CCC43C)C2C1C` (stereo not given), the activity change, negative = inhibition in experiment [1] was 4.66%; in experiment [2], 7.56%; in experiment [3], 14.6%; in experiment [4], -10.5%; in experiment [5], 6.58%.
The matching figures for `CCN(CC)CCNC(=O)c1ccc(NS(C)(=O)=O)cc1`: 1.3%, 14.2%, 9.49%, -2.61% and 6.39%.
